We go through 82 compounds from ChEMBL document CHEMBL1201862, “PubChem BioAssay data set” (2004).

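Results reflect a 48-hour exposure of cells in 96-well plates to compound at five concentrations. GI50 marks 50% less growth.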 The source made the active and inactive calls. Rule as the data show it: active = GI50 up to about 1.1 µM and inactive = higher.

The subject of the assay is NCI-H322M. The experiment in a line: NCI tumour cell line growth inhibition, 48 h.
In the case of `COc1cccc2nc3cc(C)c(C)cc3nc12`, the GI50 is inactive: > 100 µM.

On to `O=S(=O)(Nc1nccs1)c1ccc([As](=O)(O)O)cc1`, for which the GI50 was inactive: > 100 µM. In the case of `O=c1c2cc([N+](=O)[O-])cnc2sn1-c1ccc(Br)cc1` it was inactive: 29.4 µM. In the case of `COc1ccc(/C=N\O[Si](C)(C)C(C)(C)C)cc1O[Si](C)(C)C(C)(C)C` it was inactive: 15.3 µM. In the case of `COC(=O)NC(Nc1ccc(C)cc1)(C(F)(F)F)C(F)(F)F` it was inactive: > 100 µM. For the compound `Cn1c2ccccc2c2ccc3c(c21)C(=O)c1ccc2c4ccccc4n(C)c2c1C3=O`, the GI50 was inactive: > 100 µM.

As to `O=C1CC2(CCCc3sccc32)C(=O)N1` (configuration not stated), the GI50 is inactive: > 100 µM. In the case of `NC1CCC(c2cc3ccccc3s2)(N2CCCCC2)CC1` (configuration not stated) it was inactive: 1.17 µM; in that of `O=[N+]([O-])c1ccc2c(c1)OCCOCCOc1ccc([N+](=O)[O-])cc1OCCOCCO2`, inactive: > 100 µM; in that of `COc1cc2c(c(OC)c1OC)-c1ccc(SC)c(=O)cc1C(CC(=O)Oc1cccc(C#N)c1)C2` (configuration not stated), active: 0.449 µM.

For `Cc1ccc(C2(c3ccc(C)cc3)SC(=C(C#N)C#N)c3ccccc32)cc1`, the GI50 is inactive: > 100 µM. In the case of `CCN(CC)C(=O)CCn1cc(F)c(=O)[nH]c1=O` it was inactive: > 100 µM; in that of `Cc1cc2c(cc1Cl)SC(NNCCO)=NS2(=O)=O`, inactive: > 100 µM; in that of `CCCC(=O)Nc1cc([N+](=O)[O-])c([N+](=O)[O-])cc1OC`, inactive: 13 µM. `C/C(CCc1ccccc1)=N\NC(N)=S`: the GI50 is inactive: > 100 µM. `N=C(N)NNC(=O)CCCCCCCC(=O)NNC(=N)N`: the GI50 was inactive: > 100 µM. As to `[O-][S+](CCCl)c1c2ccccc2nc2ccccc12` (configuration not stated), the GI50 was inactive: > 100 µM. Next, `CCOC(=O)C1CCCN1C(=O)c1ccccc1Cl` (configuration not stated): inactive: > 100 µM.

Turning to `CC(=O)Oc1cc(OC(C)=O)c2c(=O)c3ccccc3n(C)c2c1`, the GI50 was inactive: 22.3 µM. In the case of `CCOC(=O)c1cc2c3c(c(C(C)=O)c(O)c2[nH]1)N(C(C)=O)CC3` it was inactive: > 100 µM; in that of `N=c1oc2ccccc2cc1C(=O)NC12CC3CC(CC(C3)C1)C2`, inactive: 22.2 µM; in that of `CC1(C)N=c2c(ncn2N)=C(C(N)=O)N1`, inactive: > 100 µM. In the case of `CN(C(=O)c1ccco1)C(=S)N1CCN(c2ccccc2)CC1` it was inactive: > 100 µM; in that of `COc1cc(COC(=O)NC(Cc2cccs2)C(=O)O)c([N+](=O)[O-])cc1OC` (configuration not stated), inactive: > 100 µM. As to `NS(=O)(=O)c1ccc(NNC(=O)c2cccc3c(=O)c4ccccc4[nH]c23)cc1`, the GI50 was inactive: 48.1 µM. In the case of `O=C1OCC2OC(=O)c3cc(O)c(O)c(O)c3-c3c(O)c(O)c(O)c4c3C(=O)OC(C2OC(=O)c2cc(O)c(O)c(O)c2-c2c1cc(O)c(O)c2O)C1OC(=O)c2c-4c(O)c(O)c(O)c2[C@@H]1C(O)C(O)C(O)C(O)CO` (some centres not stated) it was inactive: 13.6 µM. In the case of `COc1ccc(Cc2n[nH]c(Nc3ccc(Br)cc3)nc2=O)cc1OC` it was inactive: > 70.5 µM; in that of `CO/N=C1/c2sccc2[C@H](NC(=O)CNC(=O)OC(C)(C)C)[C@@H]1O`, inactive: > 100 µM; in that of `O=C(Cc1ccccc1)NNc1nc(NNC(=O)c2ccncc2)nc(Nc2ccc([N+](=O)[O-])cc2)n1`, inactive: > 10 µM. For the compound `CC(=O)O[C@@H]1[C@H]2O[C@H]2[C@H]2O[C@@]2(COC(=O)c2ccccc2)[C@H]1OC(C)=O`, the GI50 was inactive: > 100 µM.

On to `O=C1C(=O)N(c2ccc(Cl)c(Cl)c2)C(=O)C(=O)C1c1nc2ccccc2o1`, for which the GI50 was inactive: > 100 µM. In the case of `CC(=O)OCC1OC(O[C@@H]2C[C@H]3C(C)(C)[C@H](OC(C)=O)CC[C@]3(C)[C@H]3CC[C@@]45C[C@H](O)C[C@H](C)[C@@H]4CC=C5[C@@]32C)C(O)C(O)C1O` (some centres not stated) it was inactive: 8.24 µM; in that of `CCC/C(Cl)=N\OC(=O)Nc1ccc(F)c([N+](=O)[O-])c1`, inactive: > 100 µM. In the case of `CC(=O)OC1CC2(C)C(=CC1C1SCCS1)CCC1C2CCC2(C)C(OC(C)=O)CCC12` (configuration not stated) it was inactive: > 100 µM; in that of `O=C(O[C@@H](/C=C/c1ccccc1)P1(=O)N(Cc2ccccc2)[C@@H]2CCCC[C@H]2N1Cc1ccccc1)c1ccccc1`, inactive: 5.12 µM.

As for `CC(=O)O[C@H]1CC[C@@]2(C)C(=CC[C@@H]3[C@@H]2CC[C@](C)(c2nnc(C)o2)[C@H]3CC#N)C1`, the GI50 is inactive: > 100 µM. In the case of `CC(=O)O/N=C/c1ncccc1CO` it was inactive: > 100 µM; in that of `CO[C@@H]1C=C[C@@]23c4cc5c(cc4C(=O)O[C@H]2CN(C)[C@H]3C1)OCO5`, inactive: > 100 µM; in that of `Cc1nc(C)c(N2CCN(C#N)CC2)c(O)n1`, inactive: > 100 µM.

Consider `O=Cc1ccc(-c2ccc(-c3ccc(C=O)s3)o2)s1`, for which the GI50 was inactive: 51.6 µM. As to `CCOC(=O)c1nc2c(nc1C(=O)OCC)C(=O)c1ccccc1C2=O`, the GI50 is inactive: 1.66 µM. On to `CCCC/C=C/C1Cc2ccccc2CN1S(=O)(=O)c1ccc(C)cc1` (configuration not stated), for which the GI50 was inactive: 40.6 µM. Next, `CC(=O)C(N1CCCCC1)C(O)(C(F)(F)F)C(F)(F)F` (configuration not stated): inactive: > 100 µM. Take `Cc1cc(Cl)ccc1NC(=O)C1C(=O)C(=O)N(c2ccc(Cl)cc2C)C1=O` (configuration not stated): the GI50 was inactive: > 100 µM.

Turning to `CC[C@@]1(O)C(=O)OCc2c1cc1n(c2=O)Cc2c-1nc1ccccc1c2/C=N/NC(=O)C[N+](C)(C)C`, the GI50 was inactive: 19.7 µM. As to `CCCCCC/C=C1\CCC(CN2CCOCC2)C1=O` (configuration not stated), the GI50 is inactive: 22.2 µM.

Turning to `O=C1[C@H](O)[C@@H]2CCC[C@@]23CCCN13`, the GI50 was inactive: > 100 µM. In the case of `COc1ccc(/N=N/C(=O)NC(Cc2ccccc2)C(=O)O)cc1` (configuration not stated) it was inactive: > 100 µM. Next, `Cc1ccccc1C(=O)C1CCCCC1O` (configuration not stated): inactive: > 100 µM; `COc1ccc(OCc2ccc3nc(-c4ccccc4)c(Cl)nc3c2)cc1`: inactive: > 100 µM. `O=C(/C=c1\oc(=O)/c(=C/C(=O)c2ccc(Cl)cc2)oc1=O)c1ccc(Cl)cc1`: the GI50 is inactive: > 100 µM. Next, `NC(=O)c1ncn(CCN2CCN(C(=O)NCCCCCCNC(=O)N3CCN(CCn4cnc(C(N)=O)c4N)CC3)CC2)c1N`: inactive: > 100 µM; `CNC(=O)N(CCC#N)CCCN(C(=O)N(C)C)c1ccccc1`: inactive: > 100 µM; `CCOC(=O)C1=CC(C)(C(=O)OCC)Nc2c(nc(SC)n(C)c2=O)N1` (configuration not stated): inactive: > 10 µM. Turning to `CCCCCCC(C)OC(=O)/C=C(\CC(=O)OC(C)CCCCCC)C(=O)OC(C)CCCCCC` (configuration not stated), the GI50 is inactive: > 100 µM. Next, `CN1COCN/C1=N/C#N`: inactive: > 100 µM. In the case of `COc1cc(OC)c(OC)cc1/C=C/c1cnnc2ccccc12` it was inactive: > 10 µM. Consider `O=C(c1ccccc1)c1c(C(=O)c2ccccc2)c(-c2ccccc2)c2c(-c3ccccc3)sc(-c3ccccc3)c2c1-c1ccccc1`, for which the GI50 was inactive: > 100 µM. Next, `COC(=O)C1=CC(=O)[C@@H]2CCCC[C@H]12`: inactive: > 100 µM.

As to `CCOC(=O)C1(C(F)(F)F)N=C(CC)OC(N2CCOCC2)=N1` (configuration not stated), the GI50 was inactive: > 100 µM. Take `COc1ccc(C2CC(c3c(O)ccc4ccccc34)=NN2c2ccc([N+](=O)[O-])cc2[N+](=O)[O-])cc1OC` (configuration not stated): the GI50 is inactive: 23.9 µM. With `Cc1ccc(C[P+]2(c3ccccc3)CCCCC2)cc1.[O-][Cl+3]([O-])([O-])[O-]`, the GI50 was inactive: 46 µM.

For the compound `CC1CC(=O)N(N(C)C)C(C#N)(C#N)C1(C#N)C#N` (configuration not stated), the GI50 was inactive: > 71.8 µM. In the case of `N#CC(C(=O)CCCC(=O)Nc1ccc(Cl)cc1Cl)c1ccc(Cl)cc1` (configuration not stated) it was inactive: > 100 µM; in that of `Nc1ccc(C(=O)Nn2c(-c3ccccc3)nc3ccccc3c2=O)cc1`, inactive: > 100 µM; in that of `ICC1CCCO1` (configuration not stated), inactive: > 100 µM. `CCCCCCCC(=O)OCC1OC(n2cc(F)c(=O)[nH]c2=O)C(N)C(OC(=O)CCCCCCC)C1O` (configuration not stated): the GI50 is inactive: 18.9 µM. Next, `Cc1n[nH]c(C(F)(F)F)c1/N=N/N(C)C`: inactive: 16.2 µM; `COc1cc(-c2oc(/C=N/c3ccccc3)c([N+](=O)[O-])c2-c2ccc(O)c(OC)c2)ccc1O`: inactive: 41.9 µM. Next, `O=C1CS(=O)(=O)C(c2cccc(Oc3ccccc3)c2)N1c1ccc(Cl)cc1` (configuration not stated): inactive: 42.9 µM; `Cn1cnc(N)c(N=O)c1=O`: inactive: > 10 µM; `CCOC(=O)Nn1c(C)cc(C(=O)OC)c1C`: inactive: > 100 µM. As to `Cc1n[nH]c(=O)n1/N=C/c1ccc([N+](=O)[O-])o1`, the GI50 is inactive: 23.6 µM. For the compound `c1csc(-c2ccc(-c3ccc(-c4cccs4)s3)s2)c1`, the GI50 is inactive: > 100 µM. As to `CC(C)(C)C[P+](C)(C)c1ccccc1`, the GI50 was inactive: > 100 µM. `Nc1nc(N)c2ncn(CC(CO)CC(c3ccccc3)P(=O)(O)O)c2n1` (configuration not stated): the GI50 was inactive: > 100 µM. In the case of `Cc1c(O)c(OC2OC(CO)C(O)C(O)C2O)cc2c1CC[C@@H]1C2(C)C(=O)C[C@]2(C)[C@@H]([C@@](C)(O)C3CCC(C)(C)O3)[C@H](O)C[C@@]12C` (some centres not stated) it was inactive: > 100 µM. For the compound `C#C[C@]1(O)[C@@H](CO)O[C@@H](n2ccc(N)nc2=O)[C@@H]1O`, the GI50 is active: 0.0286 µM. As to `c1cc(C[S+]2CCCC2)sc1C[S+]1CCCC1`, the GI50 is inactive: > 100 µM.

For `COc1c2nc(CCl)n(C)c(=O)c2c(OC)c2c(=O)n(C)c(CCl)nc12`, the GI50 was inactive: 2.47 µM. `NCCCCNCCCN1CC1`: the GI50 is active: 0.236 µM. Next, `CN1C/C(=C\c2cccs2)C2=NN(C)C(c3cccs3)C2C1` (configuration not stated): inactive: > 100 µM.
